These results are taken from the supplement of paper PMC4723716.

± gives the uncertainty stated by the source. Over roughly 9,900 compounds, “viability index relative to DMSO control” has its median near 1; the lowest 2% begin near 0.85. The list shows a part of the results.

For the assay, the system named is Plasmodium falciparum NF54 stage V gametocytes. Briefly: viability index relative to DMSO control (fraction); higher = less gametocyte killing. The following applies: 2.5 µM, library set: Broad Institute DOS, incubation time: 72 h. The essentials:
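P. falciparum NF54 stage V gametocytes in serum-free screening medium (0.75% gametocytemia, 1.25% hematocrit, 10 µl) were incubated with compound at 2.5 µM in 1,536-well plates for 72 hr at 37°C under low oxygen. Then 3 µl of 2.5 µM MitoTracker Red CMXRos plus 0.13% saponin was added for one to two hours. One field per well was imaged, 20–70 µm2 red particles were counted, and the viability index was the count divided by the plate mean of DMSO wells.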
As for `COc1cccc(C(=O)Nc2ccc3c(c2)OC[C@@H](C)N(CCc2ccccc2)C[C@H](C)[C@@H](OC)CN(C)C3=O)c1`, the viability index was found to be 1.078 ± 0.0053.
The result for `COCC(=O)N1[C@H](CO)[C@@H](c2ccccc2C2=CCCC2)[C@@H]1C#N` reads 1.04 ± 0.016.
The result for `Cc1noc(C)c1NC(=O)N1C[C@H](O)COC[C@@H]2O[C@@H](CC(=O)N[C@H]3CCN(Cc4ccccc4)C3)CC[C@H]21` reads 0.96 ± 0.013; that for `C[C@H]1CN([C@@H](C)CO)C(=O)Cc2cc(NC(=O)CCN3CCOCC3)ccc2O[C@@H]1CN(C)Cc1ccc(C(=O)O)cc1`, 1.02 ± 0.17.
In turn, `O=C(c1ccccn1)N1CC2(C1)[C@@H](c1ccccc1)[C@@H](CO)N2Cc1ccc(F)cc1` yielded a viability index of 1.11 ± 0.076.
`CCC(=O)N1C[C@]2(CCN(CC2)C(=O)Nc2ccccc2F)c2c([nH]c3cc(OC)ccc23)[C@H]1CO` had a viability index of 0.9987 ± 0.0051.
The molecule `COc1ccc2c3c([nH]c2c1)[C@H](CO)N(Cc1cc(OC)cc(OC)c1)C[C@]31CN(C1)S(=O)(=O)c1cccc(F)c1` had a viability index of 0.9388 ± 0.0048.
The result for `CS(=O)(=O)Nc1ccc2c(c1)[C@H]1C[C@H](CC(=O)NCCc3ccccc3)O[C@H](CO)[C@H]1O2` reads 1.03 ± 0.08; that for `COc1ccc(S(=O)(=O)Nc2ccc3c(c2)C(=O)N([C@@H](C)CO)C[C@@H](C)[C@@H](CN(C)S(=O)(=O)c2ccc(Cl)cc2)OCCCC[C@@H](C)O3)cc1`, 0.77 ± 0.046.
The result for `COc1ccc(-c2ccccc2[C@@H]2[C@@H](CO)N(C(=O)C3CCC3)[C@H]2C#N)cc1` reads 1.17 ± 0.15; that for `CCCNC(=O)N1CC2(C1)[C@H](c1ccccc1)[C@H](CO)N2C(=O)CC1CC1`, 1.07 ± 0.043.
For the molecule `N#C[C@H]1[C@@H](c2ccccc2C2=CCCC2)[C@@H](CO)N1C(=O)Cc1ccncc1`, the viability index stood at 1.13 ± 0.18.
In turn, `N#Cc1ccc(-c2ccc([C@H]3[C@@H](CO)N4C(=O)CNC[C@H]34)cc2)cc1` returned a viability index of 1.063 ± 0.0052.
The result for `N#C[C@@H]1N[C@@H](CO)[C@@H]1c1ccc(-c2cccc(F)c2)cc1` reads 1.06 ± 0.039; that for `C[C@H](CO)N1C[C@H](C)[C@H](CN(C)C(=O)Nc2cccc3ccccc23)OCc2cn(nn2)CCCC1=O`, 0.975 ± 0.064; that for `CCC(=O)Nc1ccc2c(c1)C(=O)N(C)C[C@H](OC)[C@H](C)CN(C(=O)Cc1cccnc1)[C@@H](C)CO2`, 1.05 ± 0.093.
In turn, `CCNC(=O)C[C@@H]1CC[C@H]2[C@@H](COC[C@H](O)CN2C(=O)C2CCCC2)O1` showed a viability index of 1.08 ± 0.17.
The result for `NCC[C@@H]1CC[C@@H](NC(=O)NC2CCCCC2)[C@@H](CO)O1` reads 0.951 ± 0.023; that for `C[C@@H]1CN([C@@H](C)CO)C(=O)c2cccc(NC(=O)C3CCOCC3)c2O[C@H]1CN(C)C(=O)Nc1cccc2ccccc12`, 0.966 ± 0.063.
As to `COCC(=O)Nc1ccc2c(c1)[C@H]1C[C@H](CC(=O)N3CCOCC3)O[C@@H](CO)[C@H]1O2`, the viability index was 1.06 ± 0.036.
`O=C(C[C@H]1CC[C@@H]2[C@H](COC[C@H](O)CN2Cc2ccc3c(c2)OCO3)O1)N1CCCCC1` registered a viability index of 1.01 ± 0.072.
With `O=C(NC[C@@H]1[C@H](c2ccccc2)[C@H](CO)N1Cc1ccccn1)C1CCCC1`, the viability index was 0.684 ± 0.14.
As for `CCCC(=O)Nc1ccc2c(c1)C(=O)N(C)C[C@H](OC)[C@H](C)CN(Cc1ccc(F)cc1)[C@H](C)CO2`, the viability index stood at 1.01 ± 0.017.
`CN(C)CC(=O)N1[C@@H](CO)[C@@H](c2ccccc2)C12CN(Cc1cccnc1)C2` gave a viability index of 1.11 ± 0.043.
The result for `O=S(=O)(c1cccc(F)c1)N1CC[C@@H]2[C@@H](CO)Nc3ccc(Br)cc3[C@@H]21` reads 1.094 ± 0.0066; that for `COc1ccccc1CN1CC[C@@H]2[C@H]1c1cc(C3=CCCCC3)ccc1N[C@@H]2CO`, 0.8126 ± 0.0046; that for `CNC[C@@H]1Oc2ccc(NC(=O)NC3CCCCC3)cc2CC(=O)N([C@@H](C)CO)C[C@@H]1C`, 1.13 ± 0.14.
The result for `COC(=O)C[C@@H]1CC[C@H]2[C@H](COc3ccc(NC(=O)c4ccc(C(F)(F)F)cc4)cc3C(=O)N2C)O1` reads 1.06 ± 0.12; that for `C[C@H](CO)N1C[C@H](C)[C@H](CN(C)Cc2ccc3c(c2)OCCN3C)OCc2ccccc2-c2ccccc2C1=O`, 1.045 ± 0.0014.
`CN(C)C(=O)C[C@@H]1CC[C@@H]2[C@H](COC[C@H](O)CN2C(=O)C2CCOCC2)O1` came in with a viability index of 0.9897 ± 0.0065.
The result for `Cc1noc(C)c1C(=O)N(C)C[C@H]1OCc2ccccc2-c2ccccc2C(=O)N([C@H](C)CO)C[C@@H]1C` reads 1.09 ± 0.06; that for `CCCNC(=O)C[C@H]1CC[C@H]2[C@@H](COC[C@H](O)CN2Cc2ccncc2)O1`, 0.985 ± 0.09; that for `COc1cccc(-c2ccc([C@@H]3[C@@H](CO)N4C(=O)CN(C(=O)c5cccnc5)C[C@@H]34)cc2)c1`, 0.983 ± 0.049.
`C[C@H](NC(=O)C[C@H]1CC[C@@H]2[C@H](COc3ccc(NS(=O)(=O)c4ccc(Cl)cc4)cc3C(=O)N2C)O1)c1ccccc1` came in with a viability index of 1.03 ± 0.061.
Molecule `COc1ccc(CN(C)C[C@H]2OCCCC[C@H](C)Oc3ccc(NC(=O)C4CCCCC4)cc3C(=O)N([C@H](C)CO)C[C@H]2C)cc1` registered a viability index of 1.03 ± 0.022.
The result for `COC(=O)C[C@@H]1CC[C@@H]2[C@H](COC[C@H](O)CN2S(=O)(=O)c2cn(C)cn2)O1` reads 1.13 ± 0.025; that for `O=C(C[C@@H]1CC[C@H]2[C@@H](COC[C@H](O)CN2Cc2nccs2)O1)NCc1ccccc1Cl`, 0.994 ± 0.024.
The result for `COc1ccccc1-c1ccc([C@H]2[C@@H](CO)N(CC3CC3)C23CN(S(C)(=O)=O)C3)cc1` reads 1.056 ± 0.0046; that for `COc1cccc(S(=O)(=O)N2C[C@@H](O)COC[C@H]3O[C@@H](CC(=O)N4CCN(c5ccccc5)CC4)CC[C@@H]32)c1`, 1.02 ± 0.021; that for `C/C=C/c1ccc([C@@H]2[C@H](CO)N(C(C)=O)[C@H]2CNC(=O)c2ccccc2)cc1`, 0.992 ± 0.013.
Molecule `COc1cccc(NC(=O)N2CC(=O)N3[C@H](CO)[C@@H](c4ccc(C5=CCCCC5)cc4)[C@H]3C2)c1` yielded a viability index of 1.08 ± 0.024.
For the molecule `CNC[C@@H]1Oc2c(N)cccc2C(=O)N([C@@H](C)CO)C[C@H]1C`, the viability index is 0.975 ± 0.17.
As to `COc1cccc(C#Cc2ccc3c(c2)O[C@H](CN(C)C(=O)CN2CCOCC2)[C@@H](C)CN([C@@H](C)CO)S3(=O)=O)c1`, the viability index worked out at 0.969 ± 0.052.
Regarding `N#C[C@@H]1[C@H](c2ccc(-c3cncnc3)cc2)[C@H](CO)N1C(=O)Cc1ccccc1`, the viability index amounted to 1.07 ± 0.035.
In turn, `COc1cccc(NC(=O)N[C@H]2C=C[C@@H](CC(=O)NCc3ccncn3)O[C@H]2CO)c1` gave a viability index of 1.07 ± 0.014.
The result for `CCCC#Cc1ccc([C@H]2[C@H](CO)N3C(=O)CN(C(=O)c4cccnc4)C[C@@H]23)cc1` reads 1 ± 0.015; that for `O=C(CC(F)(F)F)N1C[C@H]2[C@@H](c3ccccc31)[C@H](CO)N2Cc1cccnc1`, 1 ± 0.031.
